The source of these data is paper PMC4011580.

Sequences of proteins named here, by UniProt entry; tags and fusion partners are left off. A change or cut given only in a name is not applied to a line headed by its entry. A line that says so, or that is headed by a name, gives the form on record, which may keep a tag or linker.
UniProt Q9Y297: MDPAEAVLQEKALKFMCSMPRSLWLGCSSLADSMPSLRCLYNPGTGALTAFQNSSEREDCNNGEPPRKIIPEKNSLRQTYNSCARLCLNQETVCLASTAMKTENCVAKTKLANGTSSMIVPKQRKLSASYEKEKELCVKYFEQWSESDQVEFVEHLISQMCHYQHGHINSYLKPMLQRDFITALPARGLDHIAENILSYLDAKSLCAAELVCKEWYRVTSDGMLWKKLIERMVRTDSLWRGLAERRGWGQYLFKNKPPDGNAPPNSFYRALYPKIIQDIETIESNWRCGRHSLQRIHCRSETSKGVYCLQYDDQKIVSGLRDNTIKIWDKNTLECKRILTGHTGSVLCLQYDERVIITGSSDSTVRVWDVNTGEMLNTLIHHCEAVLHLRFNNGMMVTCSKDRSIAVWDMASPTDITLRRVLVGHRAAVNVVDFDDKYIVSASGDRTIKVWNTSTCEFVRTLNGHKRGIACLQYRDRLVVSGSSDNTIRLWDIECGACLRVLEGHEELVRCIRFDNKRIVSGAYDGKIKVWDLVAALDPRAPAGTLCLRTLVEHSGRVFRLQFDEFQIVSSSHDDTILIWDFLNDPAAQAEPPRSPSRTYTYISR
Flag-β-TRCP1 (wild type) (Q9Y297, form named): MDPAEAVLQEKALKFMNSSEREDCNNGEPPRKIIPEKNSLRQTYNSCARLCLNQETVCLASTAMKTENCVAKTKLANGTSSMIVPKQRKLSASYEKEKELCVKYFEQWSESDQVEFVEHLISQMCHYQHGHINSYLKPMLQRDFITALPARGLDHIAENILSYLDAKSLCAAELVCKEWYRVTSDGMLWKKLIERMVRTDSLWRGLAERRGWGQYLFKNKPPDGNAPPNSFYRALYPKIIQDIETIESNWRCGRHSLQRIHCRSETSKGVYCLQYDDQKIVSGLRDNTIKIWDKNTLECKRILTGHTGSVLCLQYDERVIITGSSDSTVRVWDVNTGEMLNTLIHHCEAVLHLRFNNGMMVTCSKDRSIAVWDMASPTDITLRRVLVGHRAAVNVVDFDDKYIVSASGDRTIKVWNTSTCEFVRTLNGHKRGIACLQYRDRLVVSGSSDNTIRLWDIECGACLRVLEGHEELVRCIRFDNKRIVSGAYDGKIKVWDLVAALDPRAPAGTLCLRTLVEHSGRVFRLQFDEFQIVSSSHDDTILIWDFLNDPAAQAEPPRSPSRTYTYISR
UniProt P63208: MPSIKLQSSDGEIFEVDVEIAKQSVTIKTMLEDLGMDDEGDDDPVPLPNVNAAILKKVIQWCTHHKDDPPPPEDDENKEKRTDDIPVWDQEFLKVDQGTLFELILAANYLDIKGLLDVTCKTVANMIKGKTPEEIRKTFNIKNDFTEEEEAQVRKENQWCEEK
UniProt P48729: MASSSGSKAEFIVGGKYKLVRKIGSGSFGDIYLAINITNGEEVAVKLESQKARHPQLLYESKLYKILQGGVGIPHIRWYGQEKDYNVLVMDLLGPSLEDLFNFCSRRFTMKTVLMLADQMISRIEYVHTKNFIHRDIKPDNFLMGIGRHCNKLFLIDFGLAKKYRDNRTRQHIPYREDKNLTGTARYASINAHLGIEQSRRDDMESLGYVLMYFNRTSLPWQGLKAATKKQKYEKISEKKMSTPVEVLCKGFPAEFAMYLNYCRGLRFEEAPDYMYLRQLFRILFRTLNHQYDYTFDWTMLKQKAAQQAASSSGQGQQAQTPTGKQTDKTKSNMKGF
UniProt Q13616: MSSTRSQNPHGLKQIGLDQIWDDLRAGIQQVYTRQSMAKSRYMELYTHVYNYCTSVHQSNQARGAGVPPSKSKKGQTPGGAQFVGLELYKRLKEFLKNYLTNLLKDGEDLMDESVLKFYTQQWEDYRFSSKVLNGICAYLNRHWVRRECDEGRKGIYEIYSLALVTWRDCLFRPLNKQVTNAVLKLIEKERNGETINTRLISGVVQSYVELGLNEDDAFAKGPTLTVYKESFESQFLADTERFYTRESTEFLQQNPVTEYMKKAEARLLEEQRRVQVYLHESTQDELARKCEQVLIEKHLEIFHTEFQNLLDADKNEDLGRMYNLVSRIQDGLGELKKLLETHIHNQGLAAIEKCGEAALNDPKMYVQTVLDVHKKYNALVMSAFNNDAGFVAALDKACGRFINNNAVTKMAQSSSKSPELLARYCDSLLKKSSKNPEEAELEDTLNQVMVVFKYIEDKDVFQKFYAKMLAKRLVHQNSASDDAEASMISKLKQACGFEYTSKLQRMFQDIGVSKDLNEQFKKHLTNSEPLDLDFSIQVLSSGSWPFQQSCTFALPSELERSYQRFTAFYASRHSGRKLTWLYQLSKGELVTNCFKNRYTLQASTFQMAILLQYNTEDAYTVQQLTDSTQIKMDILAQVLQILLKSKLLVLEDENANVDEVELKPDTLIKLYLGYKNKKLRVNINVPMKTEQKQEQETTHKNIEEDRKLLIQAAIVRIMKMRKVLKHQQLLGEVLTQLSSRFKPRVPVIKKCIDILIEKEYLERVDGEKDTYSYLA
UniProt Q93034: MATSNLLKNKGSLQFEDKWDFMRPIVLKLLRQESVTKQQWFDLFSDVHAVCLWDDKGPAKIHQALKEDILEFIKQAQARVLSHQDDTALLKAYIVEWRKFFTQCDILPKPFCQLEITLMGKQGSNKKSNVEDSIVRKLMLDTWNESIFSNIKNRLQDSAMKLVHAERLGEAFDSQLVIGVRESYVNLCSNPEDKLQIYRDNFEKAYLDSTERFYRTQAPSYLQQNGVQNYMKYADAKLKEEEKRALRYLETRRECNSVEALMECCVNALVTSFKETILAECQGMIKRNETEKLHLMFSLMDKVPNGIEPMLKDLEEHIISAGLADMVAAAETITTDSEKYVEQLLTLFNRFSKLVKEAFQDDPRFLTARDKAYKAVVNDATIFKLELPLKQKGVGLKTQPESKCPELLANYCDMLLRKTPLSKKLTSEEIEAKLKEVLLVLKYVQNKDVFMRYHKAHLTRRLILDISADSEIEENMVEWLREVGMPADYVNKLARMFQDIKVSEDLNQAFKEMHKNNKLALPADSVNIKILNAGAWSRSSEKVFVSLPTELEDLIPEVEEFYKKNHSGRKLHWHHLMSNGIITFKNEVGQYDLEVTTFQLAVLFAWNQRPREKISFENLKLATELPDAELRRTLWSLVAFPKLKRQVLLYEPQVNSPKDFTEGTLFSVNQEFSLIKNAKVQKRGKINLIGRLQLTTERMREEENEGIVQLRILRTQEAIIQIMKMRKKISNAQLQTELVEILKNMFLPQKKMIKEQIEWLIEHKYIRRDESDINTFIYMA
UniProt P46934: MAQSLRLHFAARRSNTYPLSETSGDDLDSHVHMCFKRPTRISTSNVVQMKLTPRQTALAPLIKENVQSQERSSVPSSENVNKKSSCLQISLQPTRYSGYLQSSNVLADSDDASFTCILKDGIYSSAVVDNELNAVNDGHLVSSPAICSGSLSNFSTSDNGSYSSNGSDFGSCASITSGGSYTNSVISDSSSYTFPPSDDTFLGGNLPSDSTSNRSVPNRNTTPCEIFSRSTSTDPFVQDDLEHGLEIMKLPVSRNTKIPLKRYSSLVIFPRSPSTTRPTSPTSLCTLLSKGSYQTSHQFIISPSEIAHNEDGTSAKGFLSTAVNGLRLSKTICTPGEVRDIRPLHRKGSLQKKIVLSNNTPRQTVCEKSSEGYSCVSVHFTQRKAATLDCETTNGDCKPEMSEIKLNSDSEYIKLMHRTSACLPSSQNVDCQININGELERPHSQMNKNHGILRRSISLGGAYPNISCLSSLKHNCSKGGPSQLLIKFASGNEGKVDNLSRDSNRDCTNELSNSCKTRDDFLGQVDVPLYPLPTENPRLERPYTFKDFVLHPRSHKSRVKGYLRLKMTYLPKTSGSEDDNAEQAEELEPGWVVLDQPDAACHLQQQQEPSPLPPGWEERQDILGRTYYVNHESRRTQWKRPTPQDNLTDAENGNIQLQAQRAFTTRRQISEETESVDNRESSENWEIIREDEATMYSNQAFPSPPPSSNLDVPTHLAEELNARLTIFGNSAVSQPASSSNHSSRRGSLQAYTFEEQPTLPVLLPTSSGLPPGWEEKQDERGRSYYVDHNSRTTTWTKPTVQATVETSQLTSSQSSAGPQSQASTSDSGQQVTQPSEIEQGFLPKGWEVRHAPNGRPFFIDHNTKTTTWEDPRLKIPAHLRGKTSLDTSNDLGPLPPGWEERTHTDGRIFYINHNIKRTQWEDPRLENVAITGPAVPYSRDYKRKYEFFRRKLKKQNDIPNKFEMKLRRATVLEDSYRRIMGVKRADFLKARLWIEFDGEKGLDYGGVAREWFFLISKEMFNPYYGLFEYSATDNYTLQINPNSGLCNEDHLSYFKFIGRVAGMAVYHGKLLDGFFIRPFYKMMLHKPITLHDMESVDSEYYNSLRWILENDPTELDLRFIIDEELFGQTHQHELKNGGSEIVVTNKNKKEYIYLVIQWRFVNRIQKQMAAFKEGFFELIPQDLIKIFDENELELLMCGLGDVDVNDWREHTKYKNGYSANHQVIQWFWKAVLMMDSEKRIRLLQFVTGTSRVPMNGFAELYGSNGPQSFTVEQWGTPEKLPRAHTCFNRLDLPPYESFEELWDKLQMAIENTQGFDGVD
HA-NEDD4 (wild type) (P46934-4, form named): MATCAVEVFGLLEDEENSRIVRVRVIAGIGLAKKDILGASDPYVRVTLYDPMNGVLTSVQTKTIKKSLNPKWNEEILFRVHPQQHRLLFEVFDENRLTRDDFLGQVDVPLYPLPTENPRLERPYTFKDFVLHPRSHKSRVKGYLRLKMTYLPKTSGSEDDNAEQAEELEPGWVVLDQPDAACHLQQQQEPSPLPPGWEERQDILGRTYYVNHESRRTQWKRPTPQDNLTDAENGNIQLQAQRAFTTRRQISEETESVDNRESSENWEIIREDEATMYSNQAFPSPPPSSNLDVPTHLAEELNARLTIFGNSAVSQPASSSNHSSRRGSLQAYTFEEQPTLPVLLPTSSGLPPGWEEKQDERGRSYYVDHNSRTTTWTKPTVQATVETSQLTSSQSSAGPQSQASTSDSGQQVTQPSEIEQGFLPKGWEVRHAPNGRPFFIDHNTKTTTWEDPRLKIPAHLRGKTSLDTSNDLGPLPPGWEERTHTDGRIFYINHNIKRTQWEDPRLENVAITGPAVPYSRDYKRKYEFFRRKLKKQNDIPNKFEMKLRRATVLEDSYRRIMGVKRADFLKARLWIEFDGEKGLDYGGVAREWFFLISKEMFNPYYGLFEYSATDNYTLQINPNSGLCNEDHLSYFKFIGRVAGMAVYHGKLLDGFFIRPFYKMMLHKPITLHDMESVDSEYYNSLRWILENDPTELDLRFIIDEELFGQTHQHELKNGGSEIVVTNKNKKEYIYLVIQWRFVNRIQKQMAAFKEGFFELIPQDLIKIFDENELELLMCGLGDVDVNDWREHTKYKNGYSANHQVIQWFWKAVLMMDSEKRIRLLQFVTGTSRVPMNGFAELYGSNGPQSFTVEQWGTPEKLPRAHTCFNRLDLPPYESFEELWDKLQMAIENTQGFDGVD
HA-S408A-NEDD4 (P46934-4, form named): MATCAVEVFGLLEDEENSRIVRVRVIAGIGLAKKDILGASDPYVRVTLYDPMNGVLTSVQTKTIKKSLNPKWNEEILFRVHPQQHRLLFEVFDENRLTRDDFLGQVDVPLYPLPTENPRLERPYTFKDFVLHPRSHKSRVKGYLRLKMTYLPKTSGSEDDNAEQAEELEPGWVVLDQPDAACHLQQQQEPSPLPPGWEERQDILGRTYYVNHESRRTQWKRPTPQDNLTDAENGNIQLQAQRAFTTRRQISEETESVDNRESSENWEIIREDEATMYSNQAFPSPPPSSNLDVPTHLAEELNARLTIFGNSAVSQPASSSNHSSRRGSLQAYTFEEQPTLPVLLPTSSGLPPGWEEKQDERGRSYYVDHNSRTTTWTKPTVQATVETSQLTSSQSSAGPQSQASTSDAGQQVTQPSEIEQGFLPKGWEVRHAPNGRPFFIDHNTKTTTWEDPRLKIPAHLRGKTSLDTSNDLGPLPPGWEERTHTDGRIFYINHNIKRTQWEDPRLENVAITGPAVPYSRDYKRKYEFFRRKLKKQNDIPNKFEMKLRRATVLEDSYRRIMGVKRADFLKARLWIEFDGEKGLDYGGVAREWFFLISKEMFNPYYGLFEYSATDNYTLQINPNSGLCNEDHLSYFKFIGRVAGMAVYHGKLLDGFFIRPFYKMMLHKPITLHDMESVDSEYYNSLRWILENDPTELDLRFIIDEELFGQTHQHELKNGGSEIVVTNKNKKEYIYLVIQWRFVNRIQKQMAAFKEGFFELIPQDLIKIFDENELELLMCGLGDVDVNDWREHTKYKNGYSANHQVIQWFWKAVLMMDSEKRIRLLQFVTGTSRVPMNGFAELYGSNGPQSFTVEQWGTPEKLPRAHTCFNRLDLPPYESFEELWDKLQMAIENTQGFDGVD

Results are given in words; binding and its absence hold for the method and conditions named. In cells and extracts the contact can be indirect. Some entries that bind do so weakly or less than the wild type. For part of these data: Where a sequence is shown, tags or fusion partners need not be part of it.

One assay concerns the target GST-β-TRCP1 (UniProt Q9Y297). Kind of assay: co-IP; 293T cells transfected with Flag-NEDD4 and GST-F-box protein constructs; immunoblot of whole cell lysates and immunoprecipitates (Figure 1B); which partner was precipitated is not stated.
Another assay concerns the target T1, GST-Fbl18 (UniProt Q96ME1).
T1 sequence: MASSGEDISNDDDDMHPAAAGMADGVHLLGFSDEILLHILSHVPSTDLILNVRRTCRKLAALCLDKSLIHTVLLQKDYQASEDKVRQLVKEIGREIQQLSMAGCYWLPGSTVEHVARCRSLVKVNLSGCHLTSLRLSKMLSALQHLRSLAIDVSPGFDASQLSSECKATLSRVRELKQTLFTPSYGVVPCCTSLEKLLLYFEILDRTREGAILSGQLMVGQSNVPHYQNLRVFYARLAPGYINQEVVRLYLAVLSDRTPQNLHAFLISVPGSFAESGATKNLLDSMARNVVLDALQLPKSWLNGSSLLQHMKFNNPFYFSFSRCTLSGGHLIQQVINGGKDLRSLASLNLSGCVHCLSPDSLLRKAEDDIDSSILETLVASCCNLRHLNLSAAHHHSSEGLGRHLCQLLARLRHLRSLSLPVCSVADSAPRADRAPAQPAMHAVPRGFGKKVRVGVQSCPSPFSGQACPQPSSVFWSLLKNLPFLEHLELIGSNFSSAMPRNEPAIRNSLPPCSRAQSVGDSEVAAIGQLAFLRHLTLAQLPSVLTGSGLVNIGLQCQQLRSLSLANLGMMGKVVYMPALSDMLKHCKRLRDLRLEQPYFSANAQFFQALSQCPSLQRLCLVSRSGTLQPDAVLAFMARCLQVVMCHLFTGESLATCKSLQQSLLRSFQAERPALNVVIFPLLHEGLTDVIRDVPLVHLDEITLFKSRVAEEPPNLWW
Described as above.

Assay [1] deals with Flag-β-TRCP1 (wild type) (UniProt Q9Y297). Nature of the assay: co-IP; 293T cells transfected with HA-NEDD4 and a Flag- or Myc-tagged partner; EBC lysis, antibody overnight at 4 °C, Protein A sepharose, NETN washes; immunoblot (Figure 1D-G); in Figure 1E lysates were pre-treated with λ-phosphatase where indicated.
Another assay has as its target Myc-Skp1 (UniProt P63208). The assay is described as above.
For assay [2], the target named is Flag-β-TRCP1 (wild type) (UniProt Q9Y297). Kind of assay: co-IP; HeLa cells transfected with HA-NEDD4 (wild type or mutant) and Myc-tagged CKI isoforms or Flag-β-TRCP1; EBC lysis, antibody overnight at 4 °C, Protein A sepharose, NETN washes; immunoblot (Figures 3C, 4B).
The target in the next assay is Myc-CKIδ (UniProt P48730). The description is as above.
The next assay concerns the target Myc-CKIε (UniProt P49674). The description is as above.
The target of a further assay is Myc-CKIα (UniProt P48729). The description is as above.
The target in another assay is Myc-Cullin 1 (UniProt Q13616). Nature of the assay: co-IP; 293T cells transfected with Myc-tagged Cullin constructs or empty vector; lysis in EBC buffer (50 mM Tris pH 8.0, 120 mM NaCl, 0.5% NP-40), antibody overnight at 4 °C, Protein A sepharose, NETN washes; immunoblot (Figure 1A).
In another assay the target is Myc-Cullin 5 (UniProt Q93034). Described as above.
Another assay has as its target Myc-Cullin 2 (UniProt Q13617). Described as above.
In a further assay the target is Myc-Cullin 4A (UniProt Q13619). The assay is described as above.
For the next assay, the target named is Myc-Cullin 3 (UniProt Q13618). The description is as above.
The target in assay [3] is NEDD4 (endogenous, HeLa) (human (endogenous in HeLa)) (UniProt P46934). Kind of assay: co-IP; endogenous proteins; HeLa cell extracts immunoprecipitated with antibody against NEDD4 or control IgG; immunoblot (Figure 1C).

In the case of “Flag-NEDD4 (from UniProt P46934-4 1-900)”, the binding entry with GST-β-TRCP1 is on record as “binds”; with GST-Fbl18, “binds weakly”.
Consider “HA-NEDD4 (wild type) (from UniProt P46934-4 1-900)”, for which the binding entry in the assay with Flag-β-TRCP1 (wild type) [1] is on record as “binds”; in the assay with Myc-Skp1 it was “binds”; with Flag-β-TRCP1 (wild type) [2] it was “binds”; with Myc-CKIδ, “binds”; in the assay with Myc-CKIε, “no binding”; in the assay with Myc-CKIα, “no binding”.
In the case of “HA-S408A-NEDD4 (from UniProt P46934-4 1-900)”, the binding result with Flag-β-TRCP1 (wild type) [2] is recorded as “binds”.
Consider “NEDD4 (in 293T cells transfected with Myc-Cullin constructs) (from UniProt P46934 1-1319)”, for which the binding entry with Myc-Cullin 1 is “binds”; with Myc-Cullin 5 it was “no binding”; with Myc-Cullin 2, “no binding”; with Myc-Cullin 4A, “no binding”; in the assay with Myc-Cullin 3, “no binding”.
“β-TRCP1 (endogenous, HeLa) (from UniProt Q9Y297 1-605)”: the binding result in [3] is listed as “binds”.
